This is an account of results in paper PMC4889068.

Chains of the proteins cited; added tags and fusions are not shown. Lines headed by an entry give the natural chain unless they say otherwise; changes in a name come on top. Residues count along the entry.
UniProt P08238: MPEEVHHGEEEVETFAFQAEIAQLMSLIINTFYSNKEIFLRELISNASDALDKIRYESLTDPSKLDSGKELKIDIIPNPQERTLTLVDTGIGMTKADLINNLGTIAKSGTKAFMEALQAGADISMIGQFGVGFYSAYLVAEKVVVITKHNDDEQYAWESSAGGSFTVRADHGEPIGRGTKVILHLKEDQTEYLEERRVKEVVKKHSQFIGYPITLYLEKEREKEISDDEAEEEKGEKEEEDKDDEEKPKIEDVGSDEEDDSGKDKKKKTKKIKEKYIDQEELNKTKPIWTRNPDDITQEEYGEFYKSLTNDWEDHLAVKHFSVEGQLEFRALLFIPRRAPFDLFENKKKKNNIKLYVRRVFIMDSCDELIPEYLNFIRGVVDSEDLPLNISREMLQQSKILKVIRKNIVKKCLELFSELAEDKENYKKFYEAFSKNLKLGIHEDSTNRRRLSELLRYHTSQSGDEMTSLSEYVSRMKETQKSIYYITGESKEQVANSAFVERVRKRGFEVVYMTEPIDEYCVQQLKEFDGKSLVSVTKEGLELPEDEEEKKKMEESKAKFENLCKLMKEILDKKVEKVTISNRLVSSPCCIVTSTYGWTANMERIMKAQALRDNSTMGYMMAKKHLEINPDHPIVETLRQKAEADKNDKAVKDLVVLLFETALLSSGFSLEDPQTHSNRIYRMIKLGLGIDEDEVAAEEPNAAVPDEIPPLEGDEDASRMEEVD
Hsp90β(N+M)-3xFLAG: residues 1-546 of P08238
Hsp90β(M+C)-3xFLAG: residues 206-724 of P08238
Hsp90β(M)-3xFLAG: residues 206-546 of P08238

These are yes or no findings as the source states them, for the method shown. Binding seen in cells or lysates may run through a third protein. Some binding calls cover weakened binding; strength is not graded here.

The target in test [1] is Hsp90β-3xFLAG (full length human Hsp90β with N-terminal FLAG and HA tags) (human) (UniProt P08238). Briefly: condition: only cells treated with 1 μM radicicol for 2 hrs; co-IP; as a1, HEp-2 cells expressing Hsp90β-3xFLAG treated with 1 μM radicicol for 2 hrs before lysis.
For test [2] the target is unchanged. Description: condition: only cells treated with 1 mM novobiocin for 2 hrs; co-IP; as a1, HEp-2 cells expressing Hsp90β-3xFLAG treated with 1 mM novobiocin for 2 hrs before lysis.
Test [3] concerns the target Hsp90α-3xFLAG (full length human Hsp90α with N-terminal FLAG and HA tags) (human) (UniProt P07900). Briefly: co-IP; lysate of transfected HEp-2 cells on anti-FLAG agarose, 4°C, 3 hrs, IP buffer 10 mM Tris-HCl pH 7.5, 50 mM KCl, 3 mM MgCl2, 0.1% Triton X-100; eluted with 0.1 M glycine pH 3.5, Western blot; also with cells treated with 1 μM radicicol or 1 mM novobiocin for 2 hrs. (In general: A western blot detects proteins with antibodies after separation by electrophoresis.)

The next test has as its target Hsp90β(M)-3xFLAG (human) (UniProt P08238). Described as above.
Test [4] concerns the target Hsp90β(M+C)-3xFLAG (human) (UniProt P08238). The description is as above.
Test [5] deals with Hsp90β(N+M)-3xFLAG (human) (UniProt P08238). The test is described as above.
The target of test [6] is Hsp90β-3xFLAG (full length human Hsp90β with N-terminal FLAG and HA tags) (human) (UniProt P08238). The test is described as above.

B1: Sgt1 (Suppressor of G2 allele of Skp1), endogenous in HEp-2 cells (protein, UniProt Q9Y2Z0 1-365)
chain: MAAAAAGTATSQRFFQSFSDALIDEDPQAALEELTKALEQKPDDAQYYCQRAYCHILLGNYCVAVADAKKSLELNPNNSTAMLRKGICEYHEKNYAAALETFTEGQKLDIETGFHRVGQAGLQLLTSSDPPALDSQSAGITGADANFSVWIKRCQEAQNGSESEVWTHQSKIKYDWYQTESQVVITLMIKNVQKNDVNVEFSEKELSALVKLPSGEDYNLKLELLHPIIPEQSTFKVLSTKIEIKLKKPEAVRWEKLEGQGDVPTPKQFVADVKNLYPSSSPYTRNWDKLVGEIKEEEKNEKLEGDAALNRLFQQIYSDGSDEVKRAMNKSFMESGGTVLSTNWSDVGKRKVEINPPDDMEWKKY
As for B1, the binding entry is on record as “no binding” in test [1]; “no binding” in test [2]; “binds” in test [3]; “no binding” with Hsp90β(M)-3xFLAG (human); “no binding” in test [4]; “no binding” in test [5]. Also, the binding result in test [6] is reported as “binds”.
